Patent publication US20250127918A1 (MIT, published 2025)

B1: PEL-11 (peptide)
peptide: FNCQQQRRFYEALHDPNLNEEQRNAKIKSIRDD
modifications: Cys 3 S-arylated with the electrophile of OAC-01 (from 4-bromobenzenesulfonyl fluoride); C-terminal amide
B2: PEL-14 (peptide)
peptide: FNMQQQRRFYEALHDPNLNEEQRCAKIKSIRDD
modifications: Cys 24 S-arylated with the electrophile of OAC-01 (from 4-bromobenzenesulfonyl fluoride); C-terminal amide
B3: PEL-13 (peptide)
peptide: FNMQQQRRFYEALHDPNLNECQRNAKIKSIRDD
modifications: Cys 21 S-arylated with the electrophile of OAC-01 (from 4-bromobenzenesulfonyl fluoride); C-terminal amide
B4: PEL-12 (peptide)
peptide: FNMQQQRRFYEALHDPCLNEEQRNAKIKSIRDD
modifications: Cys 17 S-arylated with the electrophile of OAC-01 (from 4-bromobenzenesulfonyl fluoride); C-terminal amide
B5: PEL-15 (peptide)
peptide: FNMQQQRRFYEALHDPNLNEEQRNAKIKSICDD
modifications: Cys 31 S-arylated with the electrophile of OAC-01 (from 4-bromobenzenesulfonyl fluoride); C-terminal amide
B6: PEL-10 (peptide)
peptide: CFNMQQQRRFYEALHDPNLNEEQRNAKIKSIRDD
modifications: added Cys 1 S-arylated with the electrophile of OAC-01 (from 4-bromobenzenesulfonyl fluoride); C-terminal amide

Each binder was assayed against Trastuzumab (assay: cell-based or functional assay).

First: B1
Second: B2
The “Heavy chain total conversion (SDS-PAGE; 100 mM HEPES pH8.5)” value of the first is higher: 32% for the first, 8% for the second.

Compared with B3, B4 is higher in “Heavy chain total conversion (SDS-PAGE; 100 mM HEPES pH8.5)” value: 12% for the first, 30% for the second.

Going from B5 to B6, the “Heavy chain total conversion (SDS-PAGE; 100 mM HEPES pH8.5)” value rises from 9% to 44%.

Going from B1 to B2, the “Heavy chain total conversion (SDS-PAGE; 100 mM phosphate pH7.2)” value falls from 12% to 4%.

Compared with B3, B4 is higher in “Heavy chain total conversion (SDS-PAGE; 100 mM phosphate pH7.2)” value: 4% for the first, 10% for the second.

Going from B5 to B6, the “Heavy chain total conversion (SDS-PAGE; 100 mM phosphate pH7.2)” value rises from 0% to 22%.
